# Experimental data reported in the supplement of paper PMC3334620.
# Over roughly 33,000 sequences, “E-score (-0.5 to 0.5)” has its median near -0.021; the highest 2% begin near 0.32. The list shows a part of the results.
# Target: T1, Zap1 (UniProt P47043)
# T1 sequence: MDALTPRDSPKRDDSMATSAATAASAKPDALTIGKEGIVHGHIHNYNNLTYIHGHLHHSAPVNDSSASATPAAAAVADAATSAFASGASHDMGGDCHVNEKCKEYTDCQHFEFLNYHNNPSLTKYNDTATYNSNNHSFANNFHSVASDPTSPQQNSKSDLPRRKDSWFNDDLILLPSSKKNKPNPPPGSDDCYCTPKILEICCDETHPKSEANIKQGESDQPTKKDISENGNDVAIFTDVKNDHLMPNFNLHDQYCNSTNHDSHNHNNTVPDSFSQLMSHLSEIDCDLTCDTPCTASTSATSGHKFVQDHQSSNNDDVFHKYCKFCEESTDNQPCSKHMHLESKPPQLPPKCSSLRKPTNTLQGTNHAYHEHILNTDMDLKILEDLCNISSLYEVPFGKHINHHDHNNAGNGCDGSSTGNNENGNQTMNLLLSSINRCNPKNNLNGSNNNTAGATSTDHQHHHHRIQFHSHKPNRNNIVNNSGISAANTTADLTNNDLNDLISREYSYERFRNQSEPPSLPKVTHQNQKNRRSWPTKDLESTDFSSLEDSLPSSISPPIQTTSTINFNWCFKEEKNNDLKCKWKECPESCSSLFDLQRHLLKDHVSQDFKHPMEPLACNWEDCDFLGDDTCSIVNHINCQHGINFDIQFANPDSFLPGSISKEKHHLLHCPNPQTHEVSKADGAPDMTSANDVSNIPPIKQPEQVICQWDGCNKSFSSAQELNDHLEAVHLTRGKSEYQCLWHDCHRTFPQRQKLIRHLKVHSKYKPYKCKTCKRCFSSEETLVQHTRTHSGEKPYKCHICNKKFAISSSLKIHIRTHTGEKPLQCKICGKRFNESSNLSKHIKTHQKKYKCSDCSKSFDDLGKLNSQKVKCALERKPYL
# Assay: PBM E-score (8-mer binding enrichment) (E-score (-0.5 to 0.5)); higher = stronger / more preferred TF binding; most listed sequences are background and not binding sites
# Conditions: protein concentration: 200 nM; construct: GST-full length
# Summary of the method: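 Bound GST-tagged yeast transcription factors, applied at about 100-200 nM to double-stranded universal all-10-mer Agilent arrays, were detected with fluorescent anti-GST. Scans were normalised with masliner. A modified Wilcoxon-Mann-Whitney statistic, the E-score, was assigned to each ungapped eight-base word pooled with its reverse complement by the Universal PBM Analysis Suite.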
row,Sequence,PBM E-score
1,ATACTCCA,-0.0866
2,CGAACTCA,0.0393
3,CAATCTCA,0.117
4,CGGCCGCA,-0.129
5,AAACCAGT,-0.107
6,AACTCCAT,0.0901
7,AAACGCGT,-0.134
8,GCGGTTCC,0.217
9,AAAAGTCG,-0.033
10,ACGGAATC,-0.0608
11,GATTCTAC,-0.167
12,GTGATTAA,0.23
13,GCACGACA,-0.111
14,TCGAGAGA,-0.0777
15,CAGAGGGC,-0.213
16,ACTACAGG,0.133
17,CTACCAGC,-0.116
18,ATGACGAA,-0.026
19,ACTCGGAC,0.0249
20,AGACTGCC,-0.405
21,CACCACCG,-0.019
22,ACTAAGCT,0.0651

row,Sequence,PBM E-score
1,AGAAGCGG,-0.0937
2,CCGTGGGC,-0.107
3,AGCCAGTC,-0.234
4,AGTTTGAG,0.0386
5,AGTATGAA,-0.0476
6,GCAGTCGC,-0.0577
7,ATAGGGGA,-0.202
8,GGCCGTGA,0.305
9,ATGAGGCA,-0.189
10,ATATCATA,0.117
11,ATATGCGC,-0.087
12,GACGTTGC,-0.16
13,AGGTACCC,0.451
14,CATCCAAC,-0.0586
15,CTTATAGC,-0.0488
16,CTATGAGC,-0.127
17,CATAGTAG,0.0582
18,AAGTCCCC,-0.101
19,GAGGGTGA,0.126
20,AACCCGGG,0.324
21,AAGTACGG,-0.114
22,TAGCTAGA,-0.0796

row,Sequence,PBM E-score
1,CACGACTC,-0.0638
2,GAACAACC,0.232
3,CGGCACCG,-0.0772
4,AATGCCGC,-0.0546
5,ATTGTAAG,-0.0918
6,CAATGCTC,-0.176
7,CAAACTTG,0.0239
8,ACGCGCAC,-0.223
9,GAAGAGCA,-0.213
10,CCACGCAA,0.142
11,ATCCACCA,-0.235
12,CAAGAGCA,-0.245
13,CTTGCTTA,0.0317
14,TACACCGA,0.0144
15,AACCCGGT,0.249
16,ATATGCCA,-0.0681
17,GAAAAGGC,-0.00555
18,AACACATA,0.202
19,GTGCCTGA,-0.201
20,TCAACAAA,0.221
21,ACAACGGT,0.0336
22,ACACGGTA,0.0887

row,Sequence,PBM E-score
1,AAACGATG,-0.0259
2,ATATGGGC,0.0573
3,TAGCTGCA,-0.246
4,CCACCGAC,-0.203
5,TACAGATA,0.0943
6,AAAGAGAT,-0.0645
7,AATCCTGC,-0.231
8,AGAATGAA,0.0866
9,TCGGCTAA,-0.0807
10,AGACGGTA,0.118
11,TAGTTGGA,0.0081
12,GCTCAGAC,-0.146
13,AACCCGTT,0.224
14,CACCCAGC,-0.18
15,ACTCGAGT,0.0619
16,AGGCAGCC,-0.136
17,AAAACGGG,0.117
18,AATTGGGG,-0.128
19,GAAGCTCA,-0.161
20,CGCCTCCC,-0.305
21,CATCTAGA,0.112
22,TGTTAACA,0.0668

row,Sequence,PBM E-score
1,ACTTTTAG,0.0547
2,TCCCTCAA,0.014
3,GCTAGGAC,-0.234
4,ACGTGTCG,-0.15
5,GATTCGGA,0.0664
6,ATGGTCGC,0.114
7,CATTGGCC,-0.184
8,CCTACCCA,0.0987
9,GGATATAA,0.225
10,ATACTCAG,0.0785
11,AGAGACCT,-0.0112
12,CCATGATA,0.0221
13,ACATAAGC,-0.01
14,GTGCACCA,0.0419
15,GCCTCGGA,-0.216
16,GACTCTCA,-0.197
17,ACACACAT,0.00725
18,CAGTTGAG,-0.138
19,CGACACAA,-0.0138
20,GCTGCGAA,-0.0459
21,ACACAGCC,-0.0397
